Results on 42 sequences are retold here after article PMC7819943, “Rice protein-binding microarrays: a tool to detect cis-acting elements near promoter regions in rice”.

This is one part of the list.

The assay deals with T1, OsWOX13 (Oryza sativa, UniProt Q5QMM3 1-267).
T1 sequence: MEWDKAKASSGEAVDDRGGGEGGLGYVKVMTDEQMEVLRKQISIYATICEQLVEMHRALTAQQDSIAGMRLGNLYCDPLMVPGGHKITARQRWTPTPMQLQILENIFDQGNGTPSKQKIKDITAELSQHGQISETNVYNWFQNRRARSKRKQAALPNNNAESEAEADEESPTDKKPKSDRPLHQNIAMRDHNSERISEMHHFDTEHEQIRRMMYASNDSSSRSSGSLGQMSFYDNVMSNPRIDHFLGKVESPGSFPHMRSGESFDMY
The assay is described as follows: protein-binding microarray (RPBM); PBS, 2% BSA, 51.3 ng/ul salmon testes DNA, 50 uM zinc acetate, 200 nM TF, 25 C, 1 h; high values mean tight binding. As to conditions: protein: recombinant; tags: N-terminal polyhistidine and DsRed monomer fusion (pET32a); label: CyDye5-dUTP incorporated in the synthesized complementary strand; 3' TTTTT single-stranded linker to array surface; dsDNA, one strand shown. The essentials: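 Transcription factors were made in E. coli BL21-CodonPlus as N-terminal fusions to a polyhistidine tag and DsRed, then purified on Ni–NTA. After primer extension with Cy5-dUTP and blocking with 2% BSA, a custom Agilent array was exposed for 1 h at 25 °C to 200 nM protein in PBS, 2% BSA, salmon testes DNA and 50 µM zinc acetate. Washed arrays were scanned on an Axon 4000B, and the binding signal is per-feature fluorescence intensity in arbitrary units.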
For the sequence “AGGGGTGGGATTGAGATTGGGAAATAAATAAAATGTTAGGCGGAGTCACCTAGTGCAG”, the binding signal was 12100 fluorescence intensity (a.u.).

As to “CCTATTGAATGCTAATTAAAGGGTAAGGGTGCTCCAGATTCGGAGTCACCTAGTGCAG”, the binding signal was 11600 fluorescence intensity (a.u.). As for “GCTTTGGATTGAAGTAACTAAGACACATCTAGCAGGCAAACGGAGTCACCTAGTGCAG”, the figure is 4890 fluorescence intensity (a.u.); as for “CGTTTGTTAACTGTTGTCCGATCCGACCCAATCCTATCAGCGGAGTCACCTAGTGCAG”, 3380 fluorescence intensity (a.u.).

Take “ATTAATGTCCAGTGACTGACGTACATTGATACGTTTTCATCGGAGTCACCTAGTGCAG”: the binding signal is 15900 fluorescence intensity (a.u.). As for “ATAATACGTTAATTTCAAATCACACTGGCTTATTTAAATCCGGAGTCACCTAGTGCAG”, the figure is 5670 fluorescence intensity (a.u.). As for “CCTTAATTGAGGCAACGATTTGATGCAATAATCTTTATGCCGGAGTCACCTAGTGCAG”, the figure is 41100 fluorescence intensity (a.u.). The value for “TTGTTAATATGTCCAATTTAGCTTATCTTGATCTCAGTTTCGGAGTCACCTAGTGCAG” was 5800 fluorescence intensity (a.u.); that for “TCTGCTGATTATAATGTGACCTGCTTTGTGTAATTGTTGTCGGAGTCACCTAGTGCAG” was 21200 fluorescence intensity (a.u.).

For the sequence “CACAAATGGATAGAATTCGCCGAACAATTAAACAAAGATCCGGAGTCACCTAGTGCAG”, the binding signal is 5930 fluorescence intensity (a.u.).

For the sequence “AACTCATGATTAGAATTACACGATCTATTATGTATATTTACGGAGTCACCTAGTGCAG”, the binding signal was 18400 fluorescence intensity (a.u.).

“CATGGCCTGATTAGCTGACTGAAATAGTTTATTTCACAACCGGAGTCACCTAGTGCAG”: the binding signal was 34900 fluorescence intensity (a.u.). As to “ACTTATAGATTGAAATAAACGAGTTCCCAAGTTAGTTTTACGGAGTCACCTAGTGCAG”, the binding signal was 18500 fluorescence intensity (a.u.). As for “ATCTCAATCAAAGGTCACCTACTACATACCTGCACCCATCCGGAGTCACCTAGTGCAG”, the binding signal was 13900 fluorescence intensity (a.u.).

Regarding “TGTTGATGGCTAAAACACGAGTTATTTTATAACGATACAGCGGAGTCACCTAGTGCAG”, the binding signal was 3810 fluorescence intensity (a.u.).

“AGAGCTAATTGGTAATGTTTCTCTCCACAAAATTTTGATGCGGAGTCACCTAGTGCAG”: the binding signal is 35400 fluorescence intensity (a.u.).

Turning to “TTTCGGTGGTAAATTGACAATTACAACATGCCCTAATAGCCGGAGTCACCTAGTGCAG”, the binding signal was 41800 fluorescence intensity (a.u.).

For “TCTTAATTGGCATATTTCAAAAGTGGCAAATAATTAAATGCGGAGTCACCTAGTGCAG”, the binding signal was 31400 fluorescence intensity (a.u.). The value for “CGCCCACTGAATTAATCAATCAGTAAAGCTGCCACCGTGCCGGAGTCACCTAGTGCAG” was 39100 fluorescence intensity (a.u.); that for “ATGATTTGTTTGATAATGCCCTCTGTTATTAAGGATGATTCGGAGTCACCTAGTGCAG” was 20600 fluorescence intensity (a.u.). On to “ACAAATATCCAATTATATTGTAATTTAAATAACTAATAATCGGAGTCACCTAGTGCAG”, for which the binding signal is 3900 fluorescence intensity (a.u.). With “AGATAATTCTTACTAGATGATTATTGTATATGCTGCTATCCGGAGTCACCTAGTGCAG”, the binding signal is 9000 fluorescence intensity (a.u.).

For “ATCGATTCCACGCAATCACGCGCCGTGCCATCACTACGATCGGAGTCACCTAGTGCAG”, the binding signal was 3710 fluorescence intensity (a.u.). As for “AAGCAATTAAGAAACACCATAATGGACACTAAATTACCATCGGAGTCACCTAGTGCAG”, the figure is 9970 fluorescence intensity (a.u.); as for “GCAGCAGATTGATCTCGATCGACCGATCCGCCCGCCAGGTCGGAGTCACCTAGTGCAG”, 20100 fluorescence intensity (a.u.); as for “CTGTGATATGAGAACGATTGAGATGATGTCTGAACACAAACGGAGTCACCTAGTGCAG”, 4500 fluorescence intensity (a.u.).

On to “GATGATTTTGCTGGAGTTTTCTTTTACAACCAGAACTGTACGGAGTCACCTAGTGCAG”, for which the binding signal was 15900 fluorescence intensity (a.u.). For the sequence “TCATAATGCATCAATCTATTACTTTAGCTATCTATTTATACGGAGTCACCTAGTGCAG”, the binding signal is 7720 fluorescence intensity (a.u.). The value for “TACATTGATGGAGAATTTAGAAGGAAGATAAATTGAAGGACGGAGTCACCTAGTGCAG” was 13700 fluorescence intensity (a.u.). As for “TTATGATGTAATTAGGCTCAAAAGATTCGTCTCGCAATTTCGGAGTCACCTAGTGCAG”, the figure is 16500 fluorescence intensity (a.u.). As for “TGATTCAGCAATTAACTGCGATACTATCATTATTATCAACCGGAGTCACCTAGTGCAG”, the figure is 7120 fluorescence intensity (a.u.). With “ATAAATTATACAGTGTTACTTCTCTGTTAATTGTTCATATCGGAGTCACCTAGTGCAG”, the binding signal was 10500 fluorescence intensity (a.u.). As for “AACTGAAATTAGTACTCTCAAACTATATTCAGATGCGTGTCGGAGTCACCTAGTGCAG”, the figure is 4560 fluorescence intensity (a.u.); as for “GAGTAATTGTTTTACTTTGTGTAACGTCATGGGACCTAGACGGAGTCACCTAGTGCAG”, 10200 fluorescence intensity (a.u.). On to “GCAGCATGATTTTGACAGTGTGAGAGGTTTGAGCAAGAATCGGAGTCACCTAGTGCAG”, for which the binding signal is 3910 fluorescence intensity (a.u.). The value for “ATGATTAACCATAAGTGCTACAGTGACCCACATGTGTTAACGGAGTCACCTAGTGCAG” was 20100 fluorescence intensity (a.u.); that for “TTATACAAATTATACCTGTTAATTATTGTGATTGTTTGGTCGGAGTCACCTAGTGCAG” was 36800 fluorescence intensity (a.u.); that for “CGAATCTATTAAACATAATTAATTCGTTATTAGCAAATGTCGGAGTCACCTAGTGCAG” was 11100 fluorescence intensity (a.u.). As for “GTACATTTTAATGATTATATTATGATGATGAAAATTGTATCGGAGTCACCTAGTGCAG”, the figure is 15300 fluorescence intensity (a.u.); as for “TCTCATAATTCTTGAATAGATTTGCATGCGAAATCTATTACGGAGTCACCTAGTGCAG”, 4520 fluorescence intensity (a.u.); as for “TATATATATATATATATATATATACCCACGTGAGGACGTACGGAGTCACCTAGTGCAG”, 31500 fluorescence intensity (a.u.). The value for “TCTAATTATATGATATTTTAATGGATTATCCCTCGATAAGCGGAGTCACCTAGTGCAG” was 27400 fluorescence intensity (a.u.).
